According to paper PMC6919601, “Identification of Plasmodium dipeptidyl aminopeptidase allosteric inhibitors by high throughput screening” (PLoS ONE, 2019):
About 230 (0.21%) of roughly 110,000 compounds showed an effect of 50% or more. This is one part of the list.

What follows are compounds tested against DPAP1 (Plasmodium falciparum, UniProt Q8IIJ9) (assay: primary screen, percent inhibition; read by cleavage of a fluorogenic dipeptide substrate; higher = more effect of the substance).
Set-up: species or system P. falciparum D10 trophozoite lysates; single well
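Further: 30 min substrate incubation versus DMSO and 10 µM JCP410 controls.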

Sequence of DPAP1 (Q8IIJ9 whole entry, looked up): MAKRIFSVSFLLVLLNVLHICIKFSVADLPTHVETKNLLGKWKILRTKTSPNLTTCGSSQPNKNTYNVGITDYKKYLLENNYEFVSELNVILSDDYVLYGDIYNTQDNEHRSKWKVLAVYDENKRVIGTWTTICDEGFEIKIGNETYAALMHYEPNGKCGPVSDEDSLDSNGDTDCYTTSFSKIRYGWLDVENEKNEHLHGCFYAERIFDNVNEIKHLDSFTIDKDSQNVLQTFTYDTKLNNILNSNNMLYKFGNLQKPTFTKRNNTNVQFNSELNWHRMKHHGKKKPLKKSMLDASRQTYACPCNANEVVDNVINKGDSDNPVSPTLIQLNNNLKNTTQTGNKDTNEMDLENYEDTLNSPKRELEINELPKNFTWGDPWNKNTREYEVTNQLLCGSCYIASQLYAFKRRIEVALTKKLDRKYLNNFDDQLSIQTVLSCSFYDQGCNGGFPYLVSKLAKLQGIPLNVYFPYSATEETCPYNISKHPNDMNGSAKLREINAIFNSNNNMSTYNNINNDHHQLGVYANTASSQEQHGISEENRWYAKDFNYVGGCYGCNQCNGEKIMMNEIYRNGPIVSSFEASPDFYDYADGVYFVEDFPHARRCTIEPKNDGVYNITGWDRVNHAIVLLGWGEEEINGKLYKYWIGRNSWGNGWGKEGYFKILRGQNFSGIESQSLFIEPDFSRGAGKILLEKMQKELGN

SMILES	% Inhibition @ 10 uM
CC(CNC(=O)Cn1cc2c(n1)CCCC2)c1ccccc1 (centres unmarked)	-1.58%
Cc1cccc(OCCCN2CCOCC2)c1	-2.28%
O=C(c1cnn2c(C(F)(F)F)cc(-c3ccc4c(c3)OCO4)nc12)N1CCOCC1	3.32%
COc1ccc(C(=O)CCC(=O)NC2=NCCS2)cc1	-3.21%
CCN(Cc1ccccc1)S(=O)(=O)Cc1ccccc1Cl	-0.834%
CC(C)CN(CC(C)C)C(=O)c1cc(-c2ccc(Cl)cc2)[nH]n1	3.64%
CCN(CC)C(=O)C1CCCN(Cc2cccc(C(F)(F)F)c2)C1 (centres unmarked)	-1.86%
COC(=O)c1ccc(-c2ccco2)[nH]1	1.63%
CC1CCCN(C(=O)CCCOc2ccc(Cl)cc2Cl)C1 (centres unmarked)	-5.18%
O=C(O)C1C2C=CC(C2)C1C(=O)Nc1ccccc1Br (centres unmarked)	-6.22%
Cn1c(=O)c2c(-c3ccccc3)n(Cc3ccccc3)cc2n(C)c1=O	-7.17%
O=C(NCCc1c[nH]c2ccc(OCc3ccccc3)cc12)c1ccco1	4.93%
O=S(=O)(NCCc1ccncc1)c1ccc(Br)cc1	-5.58%
Cc1cc(C)n(C(C)CC(=O)NCCc2ccc(Cl)cc2)n1 (centres unmarked)	0.762%
CCC1CCc2c(sc(NC(=O)CCc3ccccc3)c2C(N)=O)C1 (centres unmarked)	2.36%
O=C(O)[C@H](Cc1ccc(O)cc1)N1C(=O)c2ccccc2C1=O	2.39%
Cc1cccc(-c2nc(CS(=O)CC(=O)NCC3CCCO3)c(C)o2)c1 (centres unmarked)	-1.05%
Cc1ccc(C(=O)Nc2cccc(NC(=O)c3ccc(C)cc3)n2)cc1	3.57%
Cc1ccc(C2c3c(oc4ccccc4c3=O)C(=O)N2c2nnc(C(C)C)s2)cc1 (centres unmarked)	1.19%
COc1ccc(C(=O)c2ccc(Br)cc2)cc1	0.912%
Cc1ccccc1-c1nnc(SCC(=O)N2CC(C)CC(C)C2)o1 (centres unmarked)	5.1%
O=c1c2c(ncn1Cc1ccccc1)nc1n2CCC1	0.634%
COc1ccc(/C=C2\N=C(c3ccc(C(C)(C)C)cc3)OC2=O)cc1	-1.51%
COc1ccc(/C=C2/NC(=S)NC2=O)cc1	1.7%
Cc1cc(O)c(C2=NCCSC(c3ccc(O)cc3)C2)c(=O)o1 (centres unmarked)	4.89%
CCCc1cc(C(=O)Nc2c(C)nn(Cc3ccccc3C)c2C)no1	-7.23%
CCOc1ccc2nc(N3CCC(C(=O)NC(C)C45CC6CC(CC(C6)C4)C5)CC3)sc2c1 (centres unmarked)	-1.58%
c1ccc(-c2cnn3c(-c4ccccc4)cnc3n2)cc1	-1.99%
CC1(C)OC(=O)C(C#N)=C1/C=C/c1ccco1	-1.22%
